{"source": "the supplement of paper PMC11417369", "note": "The list shows a part of the results."}
{"test_system": "PfAP2-HC AP2 domain (GST-tagged)", "assay": "gcPBM binding intensity (ln(normalized median fluorescence intensity)); higher = stronger DNA binding", "method_in_brief": "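Each value is the highest Masliner-normalised natural-log median intensity across replicate spots of either orientation of a probe. The probes were primer-extended double-stranded 36-bp intergenic genomic sequences on an Agilent 4 × 180k array, alongside negative controls, exposed for 1 h to GST-tagged P. falciparum DNA-binding domains expressed in E. coli. Bound protein was picked up with Alexa488 anti-GST antibody and scanned at 488 nm.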"}
{"sequence": "AAAATATATAATTTTTAACACACAAAAAAAAAAAAA [CACACA_site9192]", "gcPBM binding intensity (ln)": 9.65}
{"sequence": "ATATTAAAAAAATATGCATGCAAATATTATTTTGTA [TGCATGCA_site191]", "gcPBM binding intensity (ln)": 9.57}
{"sequence": "TAAAAATATAAAAAGTGTACAATATATAAATTAATA [XGTACX_site1606]", "gcPBM binding intensity (ln)": 9.85}
{"sequence": "AATCAAATTTTCAAGTCGCACCAAACAAAAAAATGA [CACACA_negctrl_site1397]", "gcPBM binding intensity (ln)": 9.86}
{"sequence": "TTTTTCTTTTTTTTTTTAATAATATATAACAAATTT [CACACA_negctrl_site1724]", "gcPBM binding intensity (ln)": 9.57}
{"sequence": "TATTTAATTAATATAATATTAAACGGAAAAGATAAA [TGCATGCA_negctrl_site148]", "gcPBM binding intensity (ln)": 9.58}
{"sequence": "ATGTTATATTTTTTTATACACACTGGGATATATAAA [CACACA_site6244]", "gcPBM binding intensity (ln)": 9.65}
{"sequence": "TTCATTGTGTTAACGGTGCATATATTTTTTCACCGT [GTGCAC_site9464]", "gcPBM binding intensity (ln)": 9.68}
{"sequence": "TAAAATTTACAACACTGTACTTGAATTTATCTTTAA [XGTACX_site241]", "gcPBM binding intensity (ln)": 9.64}
{"sequence": "CATTAATTTAATAAATGTACATAAAATATATATTAT [XGTACX_site8085]", "gcPBM binding intensity (ln)": 9.54}
{"sequence": "GCAGTATGCGATCAGTGTACGAGTTATTTTATAAAA [XGTACX_site4764]", "gcPBM binding intensity (ln)": 9.34}
{"sequence": "AAATGCGTATATAACGCATGTATAAGAACATTTTTT [TGCATGCA_site225]", "gcPBM binding intensity (ln)": 9.7}
{"sequence": "TTATAATCTATACATATATATGTATGTATGTCTCAA [CACACA_negctrl_site1702]", "gcPBM binding intensity (ln)": 9.69}
{"sequence": "GAAGTATTATTAAAGCTGCACTTTTCTAAAATAAAC [GTGCAC_site9429]", "gcPBM binding intensity (ln)": 9.5}
{"sequence": "ATATTACAAATATAATGTACAAAATATAAATATGCA [XGTACX_site8106]", "gcPBM binding intensity (ln)": 9.78}
{"sequence": "GTCCTTACTAATTAATTTTAGGCCATATAGTTTGTC [XGTACX_negctrl_site199]", "gcPBM binding intensity (ln)": 9.64}
{"sequence": "GTTATACACATATATACACACATATGTAAATATATA [CACACA_site9080]", "gcPBM binding intensity (ln)": 9.94}
{"sequence": "CTAATATATGTATGCACACACAATATATACATATTT [CACACA_site3360]", "gcPBM binding intensity (ln)": 10.1}
{"sequence": "ACATGATAAATAGTCACACATAAATATAATATATAT [CACACA_site5207]", "gcPBM binding intensity (ln)": 9.89}
{"sequence": "ATTATGGATACATAAACACACATATATATAAAAAAA [CACACA_site4303]", "gcPBM binding intensity (ln)": 9.93}
{"sequence": "ATAATTATATTTTATTCACACATCGTTATATAGTAA [CACACA_site4743]", "gcPBM binding intensity (ln)": 9.61}
{"sequence": "AATTATTCATAAAATGCATGTACATGGTTTAATATT [TGCATGCA_site87]", "gcPBM binding intensity (ln)": 10.2}
{"sequence": "TCGTAAACTTTATGCACACACATATACATATTTCAT [CACACA_site739]", "gcPBM binding intensity (ln)": 10.8}
{"sequence": "ATACATGTTTTATGTGCACACAAAGTTGTTATGAGG [CACACA_site4032]", "gcPBM binding intensity (ln)": 10.1}
{"sequence": "TTATAATTTAATAAATGTACATAAATAATATACATA [XGTACX_site7271]", "gcPBM binding intensity (ln)": 9.34}
{"sequence": "AACACAATAAAAATTAAAAATGTTAAGTAAATATAA [GTGCAC_negctrl_site60]", "gcPBM binding intensity (ln)": 9.72}
{"sequence": "AGACAATATCTTATTTGTACATATGTATTCCTCATA [XGTACX_site5757]", "gcPBM binding intensity (ln)": 9.76}
{"sequence": "TTTTAATTTATCGACACACGCATGAATAGAAATTAG [CACACA_site3361]", "gcPBM binding intensity (ln)": 9.61}
{"sequence": "AAAAAAAAAAAAAAAACACACATATAGATTATTGTA [CACACA_site7797]", "gcPBM binding intensity (ln)": 9.63}
{"sequence": "TATTTTTATTTTCCTTCACACATTTTTTATATTTTT [CACACA_site5830]", "gcPBM binding intensity (ln)": 9.83}
{"sequence": "TATGTATATTTAAATGCATGTGATTATTTTTGACTT [TGCATGCA_site568]", "gcPBM binding intensity (ln)": 9.53}
{"sequence": "TTATAAATTTAAAAAGTGCATAATAATAACAAAAAG", "gcPBM binding intensity (ln)": 9.7}
{"sequence": "ACTTTTTTTTTTTTTTTAGATTACATAAATATAAAT [CACACA_negctrl_site139]", "gcPBM binding intensity (ln)": 9.59}
{"sequence": "TATACCTATAGACACACACACATAAATAGATATATA [CACACA_site6748]", "gcPBM binding intensity (ln)": 11.1}
{"sequence": "TACACGCATAGACACACACACACACGCATATAAATA [CACACA_site6446]", "gcPBM binding intensity (ln)": 11.3}
{"sequence": "TTTTTTTTTTTAAATAGTACACATATATATATATAT [XGTACX_site6983]", "gcPBM binding intensity (ln)": 9.71}
{"sequence": "AAAAAAAAAAAAAAAAGTACAAAAAAAAAAAAAAAA [XGTACX_site4549]", "gcPBM binding intensity (ln)": 8.73}
{"sequence": "TTTTATTTTTCTAGTAGTACTTCTTTTTATAATATA [XGTACX_site1181]", "gcPBM binding intensity (ln)": 9.66}
{"sequence": "AGTTTACACCTTGTGAGTACATACATACATATATAT [XGTACX_site8793]", "gcPBM binding intensity (ln)": 10.2}
{"sequence": "TTAACATTTTAAAAATGTACATTTATATACATAAAT [XGTACX_site922]", "gcPBM binding intensity (ln)": 9.37}
{"sequence": "AGAAAAATTCTAAGAACATGCAAAAAAATAAAAAAA [TGCATGCA_site293]", "gcPBM binding intensity (ln)": 9.53}
{"sequence": "TCTAATGTAATGCATACACACAACTATCCATCAAAA [CACACA_site534]", "gcPBM binding intensity (ln)": 9.74}
{"sequence": "AAAAAATAAATAAATATACACACCATATATATATTT [CACACA_site2854]", "gcPBM binding intensity (ln)": 10}
{"sequence": "CTTTGTAGTTGGTCCACACACATATATGGAAGAATA [CACACA_site1280]", "gcPBM binding intensity (ln)": 9.93}
{"sequence": "ATATATATATATATATATATATATATATTTATATAT [GTGCAC_negctrl_site180]", "gcPBM binding intensity (ln)": 9.38}
{"sequence": "TAATAATAGAGACACACACACATTTTTAATAATACA [CACACA_site6691]", "gcPBM binding intensity (ln)": 10.5}
{"sequence": "TTTTTTTTTTTTTTGTCACACACCTTCATAAGAAAA [CACACA_site1166]", "gcPBM binding intensity (ln)": 9.51}
{"sequence": "CACACCATATAATATATATATATGTATATATTTATA [CACACA_negctrl_site397]", "gcPBM binding intensity (ln)": 9.67}
{"sequence": "TAAAAGGAACAAAATTGTACTTAAAAGACAAAGTTA [XGTACX_site7661]", "gcPBM binding intensity (ln)": 9.56}
{"sequence": "ACACAAAAATAAAAATGTACAAATTAAAAAAAATGA [XGTACX_site2083]", "gcPBM binding intensity (ln)": 10}
{"sequence": "TTTGTTCTATGGAGTTTAAAATGTAATATATATTAA [GTGCAC_negctrl_site151]", "gcPBM binding intensity (ln)": 9.43}
{"sequence": "ATCCTGAACAGAATATGTATAAACAGAAGGAAACAA [CACACA_negctrl_site1805]", "gcPBM binding intensity (ln)": 9.85}
{"sequence": "ATATATATTAATAGTTGTACTATTATAATATTACAA [XGTACX_site1213]", "gcPBM binding intensity (ln)": 9.5}
{"sequence": "TATAAGCAAAGACACACACACATATAAATATAAATA [CACACA_site7740]", "gcPBM binding intensity (ln)": 10.5}
{"sequence": "TATAAAATATATATCTGTACGTATTTTATTTTTTAT [XGTACX_site6257]", "gcPBM binding intensity (ln)": 9.75}
{"sequence": "TACAAAATATTTTACACACACATATAAATACCTATA [CACACA_site7272]", "gcPBM binding intensity (ln)": 10.4}
